Test results from PubChem BioAssay AID1745853 (National Center for Advancing Translational Sciences (NCATS), 2022).
The other results are listed elsewhere or left out. These are further read-outs of the screen, such as a control signal, another cell line or another target. No call is given for them.

Columns and labels:
Assay in all cases: Primary Screen for Target Class Profiling of Small Molecule Inhibitors of Methyltransferases
[1] = target: Glycine N-methyltransferase (Homo sapiens) (UniProt Q14749); details: purified enzyme, MTase-Glo SAH luminescence; measured here: GNMT inhibition; at 40 µM; stronger effect = lower value
How it was run: (§1)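 Each enzyme was assayed with SAM and its substrate. SAH formation detected by MTase-Glo luminescence; single-point 40 uM screen[…].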

[2] = target: Guanidinoacetate N-methyltransferase (Homo sapiens) (UniProt Q14353); details: purified enzyme, MTase-Glo SAH luminescence; measured here: GAMT inhibition; at 40 µM; stronger effect = lower value
How it was run: as §1

[3] = target: Histamine N-methyltransferase (Homo sapiens) (UniProt P50135); details: purified enzyme, MTase-Glo SAH luminescence; measured here: HNMT inhibition; at 40 µM; stronger effect = lower value
How it was run: as §1

[4] = target: Nicotinamide N-methyltransferase (Homo sapiens) (UniProt P40261); details: purified enzyme, MTase-Glo SAH luminescence; measured here: NNMT inhibition; at 40 µM; stronger effect = lower value
How it was run: as §1

[5] = target: Phenylethanolamine N-methyltransferase (Homo sapiens) (UniProt P11086); details: purified enzyme, MTase-Glo SAH luminescence; measured here: PNMT inhibition; at 40 µM; stronger effect = lower value
How it was run: as §1
% is set by controls: 0 for no effect and ±100 for the full control effect.

SMILES | activity change, negative = inhibition [1] | activity change, negative = inhibition [2] | activity change, negative = inhibition [3] | activity change, negative = inhibition [4] | activity change, negative = inhibition [5]
CN1CCN(c2nc3c(-c4cccc(F)c4)nnn3c3ccc(Cl)cc23)CC1 | -3.74% | 0.439% | 8.52% | 13.2% | 0.879%
CCOC(=O)c1cc2n(n1)CC(C)(C(=O)NCc1ccccc1)N(c1ccc(C)cc1C)C2=O (stereo not given) | -3.42% | 0.681% | -4.56% | -6.25% | -4%
COCCn1c(C)cnc1CCNC(=O)c1cc(C)nn1C | 0.731% | 1.59% | -0.586% | -1.49% | 12.7%
COC(=O)C1=C[C@@H](O)[C@@H](O)[C@H](O[C@@H]2O[C@H](COC(=O)/C=C/c3ccccc3)[C@@H](O)[C@H](O)[C@H]2O)C1 | 2.12% | -2.75% | 4.62% | -13.3% | 1.19%
C#CCNC(=O)C1CCc2nnc(C3CCN(C(=O)Nc4ccc(Cl)cc4)CC3)n21 (stereo not given) | -2.63% | -3.78% | -2.23% | -6.63% | -4.22%
Cc1nn(C)c(=O)n1C1CCN(S(=O)(=O)c2cccs2)CC1 | -0.1% | -0.544% | 3.45% | -1.06% | -1.66%
Cc1cccc(N2C(=O)c3cc(-c4cccs4)nn3CC2(C)C(=O)NC2CCCCC2)c1C (stereo not given) | -8.31% | -0.904% | -3.98% | -1.89% | -8.34%
COc1cccc(-c2cccc(CN3CCCC3C(=O)N3CCCCC3)c2)c1 (stereo not given) | -9.92% | -10.1% | -10.9% | -21.5% | -17.2%
C[C@@H]1CC[C@]2(C(=O)O)CC[C@]3(C)C(=CCC4[C@@]5(C)CC[C@H](O)[C@](C)(C(=O)O)C5CC[C@]43C)C2[C@]1(C)O (stereo not given in full) | -0.085% | 0.7% | 9.34% | -15.5% | -7.85%
CC1(C(=O)NC2CCCCC2)Cn2c(cc3ccccc32)C(=O)N1CCN1CCOCC1 (stereo not given) | -2.45% | 4.99% | -1.23% | -2.8% | -0.271%
Cc1nncn1C1CN(S(=O)(=O)c2ccc3c(c2)CCC3)C1 | -1.24% | 0.487% | 2.28% | -3.92% | 8.21%
CC(=O)C=C=C1C(C)(C)CC(O)CC1(C)O[C@@H]1O[C@H](CO[C@H]2OC[C@](O)(CO)[C@H]2O)[C@@H](O)[C@H](O)[C@H]1O (stereo not given in full) | -8.92% | -25.6% | 3.27% | -35.2% | -0.551%
COc1ccccc1C(=O)N1CCCC(CN2CCC(C)CC2)CC1 (stereo not given) | -3.23% | -4.13% | -9.88% | -2.01% | -0.94%
CCOC(=O)[C@H](CCc1ccccc1)CC1(C(=O)N[C@H]2CCc3ccccc3N(CC(=O)O)C2=O)CCCC1 | 4.94% | 4.66% | 7.16% | -13.9% | -1.97%
COc1ccc2cc3n(c2c1)CC(C)(C(=O)NC1CCCCCC1)N(Cc1cccs1)C3=O (stereo not given) | 1.63% | 0% | 2.95% | -10.6% | -1.04%
COc1cc(-c2nnc3n(CCc4ccccc4)c(=O)c4ccccc4n23)ccc1O | -7.12% | 5.53% | -0.221% | 3.32% | -4.37%
CCCN1C(=O)c2c(C(=O)Nc3ccccc3CC)ncn2CC1(C)C(=O)NCc1ccc(C)cc1 (stereo not given) | 4.57% | 0% | 15.1% | 3.58% | 11.7%
Cc1[nH]cnc1-c1nccn1CC(CO)Cc1cccs1 (stereo not given) | -4.25% | -9.47% | -20.4% | -16.5% | -13.6%
Cc1ccc(C)c(N2CCN(C(=O)Cn3c(=O)oc4cc(S(=O)(=O)N5CCCC5)ccc43)CC2)c1 | 16.4% | 0.558% | 14.7% | 7.27% | 10%
CN1C(=O)c2cc(C(=O)NCCc3ccccc3)nn2CC1(C)C(=O)NC1CCCCCC1 (stereo not given) | 7.69% | 2.16% | 5.13% | 8.43% | 1.91%

SMILES | activity change, negative = inhibition [1] | activity change, negative = inhibition [2] | activity change, negative = inhibition [3] | activity change, negative = inhibition [4] | activity change, negative = inhibition [5]
CCOc1ccc(N2C(=O)c3cc4sccc4n3CC2(C)C(=O)NC2CCCCCC2)cc1 (stereo not given) | -6.51% | 4.92% | -4.6% | -4.72% | -5.83%
CC1(C(=O)O)CCCC2(C)C3CCC4CC3(CCC12)CC4C(=O)O (stereo not given) | 0.669% | 2.97% | 10% | -8.84% | -1.27%
O=C([C@@H]1C[C@@H](c2ccc(F)cc2)N([S+](=O)([O-])c2cccnc2)C1)N1CCOCC1 | -5.06% | -8.02% | -2.15% | -13.2% | -9.11%
Cc1ccc2c(c1)c(-n1cccc1)c1n2CC(C)(C(=O)NCCC(C)C)N(Cc2cccs2)C1=O (stereo not given) | 1.19% | 0% | -0.453% | -8.13% | -1.42%
CCn1ncc(NC(=O)Cn2ncc3cc(-c4ccccc4F)ccc32)n1 | -8.13% | -3.94% | -2.22% | -5.68% | 2.14%
Cn1cc(CN2CCOc3cc([S+](=O)([O-])Nc4ccccc4)ccc3C2)cn1 | -3.25% | -1.62% | -0.122% | -1.57% | 4.11%
CS(=O)(=O)Nc1ccc(OCC(=O)N2CCN(c3ccc(F)cc3)CC2)nc1 | -2.58% | -1.35% | 2.05% | -4.44% | -3.85%
CCOC(=O)c1cccc(NC(=O)N2Cc3c(sc4c3CCCC4)-n3cccc3C2C(C)C)c1 (stereo not given) | -4.62% | 0% | -2.49% | -9.64% | -3.28%
C=CCn1c(=O)c2ccc(C(=O)NCC(C)C)cc2n2c(=O)n(CC(=O)NC3CCCC3)nc12 | -0.893% | 2.44% | 4.47% | -16.6% | -3.24%
COCCn1c(C)cnc1CCNC(=O)Cn1nc(C(F)(F)F)cc1C | 0.149% | -0.853% | 2.17% | -9.91% | 12.5%
Cc1cc2c(cc1N1C(=O)c3cccc4c(CCCO)ccc(c34)C1=O)n(C)c(=O)n2C | -19.5% | -19.5% | 5.94% | -24.1% | -8.57%
O=c1cc2c(nn1Cc1cccc(Br)c1)CCCCC2 | -9.34% | -1.69% | -4.05% | -28.8% | -4.95%
CC(C)N1C(=O)[C@@H]2[C@@H](CCN2C(=O)CCCC(=O)O)N(Cc2cccc(F)c2)C1=O | -1.88% | -7.27% | -0.238% | -4.71% | -3.81%
Cc1oc2nc3c(c(NC(=O)CN4CCCC4=O)c2c1C)CCCC3 | -6.5% | -7.75% | 1.58% | -17.5% | -3.96%
CCCC1=CC2=C(CO1)C(=O)C(C)(OC(=O)c1c(C)cc(OC)cc1O)C(O)C2 (stereo not given) | -0.782% | 4.11% | 7.36% | -10.6% | -2.48%
O=C(COc1ccc2ccccc2c1Br)Nc1cccnc1 | -11.6% | 3.2% | 9.02% | -25.1% | -6.38%
CC(C)c1cccc(C(C)C)c1NC(=O)Nc1ccc(Sc2ccc([N+](=O)[O-])cc2)cc1 | 1.83% | -39.1% | 8.67% | -42.5% | -4.03%
CN(CCC1CCOCC1)Cc1ccccc1OCC(O)CN1CCSCC1 (stereo not given) | 1.62% | 1.67% | 0.198% | -2.86% | 14.2%
CCCSCCCN1C(=O)c2ccc(-c3ccco3)n2CC1(C)C(=O)NC1CCCC1 (stereo not given) | -0.435% | 0.044% | 3.5% | -0.278% | -2.19%
COC1CC/C=C(\C)C(=O)Nc2cc(O)cc(c2)CC(C)CC(OC)C(O)C(C)/C=C(\C)C1OC(N)=O (stereo not given) | 4.8% | 4.54% | 5.17% | -9.6% | 3.45%

SMILES | activity change, negative = inhibition [1] | activity change, negative = inhibition [2] | activity change, negative = inhibition [3] | activity change, negative = inhibition [4] | activity change, negative = inhibition [5]
Cc1oc2ccn(C)c(=O)c2c1C(=O)NCc1cc(F)ccc1F | -40.6% | -5.96% | -4.46% | -14.6% | -5.87%
CN1CCCN(S(=O)(=O)c2cn(C)cn2)c2ccccc21 | -7.04% | -1.93% | -10.2% | -4.74% | -8.02%
O=C(N[C@@H]1CCN(C(=O)CCCn2cccn2)C[C@H]1O)c1ccccn1 | -0.692% | 0.584% | -1.5% | 2.16% | 11.4%
COc1ccc(OC)c(CNC(=O)Cn2ccc3cc(S(=O)(=O)N4CCCCC4)ccc32)c1 | -3.75% | 0.141% | -3.52% | -14.4% | -2.1%
Cn1cnc(S(=O)(=O)N2c3ccccc3CC2c2noc(C3CCOCC3)n2)c1 (stereo not given) | 0.599% | 0.64% | 1.74% | -4.66% | 3.77%
Cc1cc2c(cc3n2CC(C)(C(=O)NC2CCCCCC2)N(c2ccc(C)c(C)c2)C3=O)o1 (stereo not given) | -2.63% | 0% | 7.08% | -1.54% | 2.69%
CC(C)NC(=O)NC1CC2(CCN(C(=O)Cc3ccc(O)cc3)CC2)c2ccccc21 (stereo not given) | -4.76% | -0.598% | -2.16% | -5.13% | -0.031%
CCC(=O)N1CCC(CC(=O)N2CCOCC2)C1 (stereo not given) | -0.311% | 1.01% | -0.217% | -0.849% | 10.8%
COc1cc(OC)cc(N2C(=O)c3cc(C(C)(C)C)nn3CC2(C)C(=O)NC2CCCCCC2)c1 (stereo not given) | -0.726% | 0% | 1.89% | -1.19% | -3.14%
COc1ccc(CN2C(=O)c3ccc(-c4ccco4)n3CC2(C)C(=O)NC2CCCCCCC2)cc1 (stereo not given) | -11.6% | 0.883% | -1.61% | -15.4% | -7.72%
c1ccc2nc(C3=NCCN3)ccc2c1 | 11.3% | 12.8% | 12.2% | -6.16% | -22.1%
Cc1noc(C)c1S(=O)(=O)N1CCCC(Cc2nncn2C(C)C)C1 (stereo not given) | 0.672% | -2.38% | 0.858% | -1.47% | -15.4%
CC1CCN(S(=O)(=O)c2ccc3c(ccn3CCC(=O)NCCC3=CCCCC3)c2)CC1 | -5.16% | 0% | -3.97% | -12.4% | -6.42%
C=CCn1c(CN2CCC3(CC(=O)NC3=O)C2)nc2ccccc21 (stereo not given) | -9.02% | -10.2% | -5.67% | -32.2% | -11.2%
CC(C)CCn1c(=O)c2ccc(C(=O)NC3CCCCC3)cc2n2c(=O)n(Cc3ccccc3F)nc12 | 2.72% | 1.18% | 6.49% | 2.93% | 2.19%
CCc1cccc(NC(=O)c2cc3n(n2)CC(C)(C(=O)NC2CCCCC2)N(C)C3=O)c1 (stereo not given) | 5.45% | 0% | 5.96% | 1.68% | 2.61%
CCCn1c(=O)c2ccc(C(=O)NC(C)CC)cc2n2c(=O)n(CC(=O)c3cc(C)ccc3C)nc12 (stereo not given) | 4.71% | 0.536% | 10.4% | -2.29% | 5.67%
CCCN1C(=O)c2cc3sccc3n2CC1(C)C(=O)NC1CCCCCCC1 (stereo not given) | -5.29% | 3.67% | -1.8% | -4.33% | -3.34%
Clc1ccc2c(c1)C1C=CCC1C(c1ccccc1Br)N2 (stereo not given) | 1.19% | 0% | 4.61% | -3.8% | 0.39%
Cc1ncoc1C(=O)N1CCC[C@H](n2c(=O)n(C)c3cccnc32)C1 | -5.03% | -2.15% | -2.51% | -4.7% | -5.1%
